For 59 molecules, GI50 and TGI results are on record in PubChem BioAssay (NCI).

Each structure is given as a SMILES string. Where “and” joins values, the source holds several entries; their conditions need not be identical. Equal entries are not always repeated.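 All cell lines were grown in 96-well plates and treated with compound for 48 hours. At the GI50, growth is halved. TGI is the concentration that stops growth completely.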

This assay deals with NCI-H322M lung. The assay can be described thus: growth of human tumour cells (NCI), 48 h.

Turning to `NC(Cc1ccc(O)cc1)C(=O)N/N=C/c1ccc(N(CCCl)CCCl)cc1` (centres undefined), the GI50 is 39.9 µM and the TGI is greater than 100 µM.

Molecule `CC(C)(C)OC(=O)N(CCCCNC(=O)c1ccccc1)CCCNC(=O)c1ccccc1` registered a TGI greater than 100 µM.

On to `CC(N)CN.CC(N)CN.[Cl-].[O]=[Os+2]=[O]` (centres undefined), for which the GI50 was greater than 100 µM and the TGI is greater than 100 µM.

In turn, `CC(=O)N1N=C(c2ccccc2Nc2ccccc2C2=NN(C(C)=O)C(c3ccccc3)O2)OC1c1ccccc1` (centres undefined) gave a TGI greater than 100 µM.

As for `Oc1[nH]c2ccc(Cl)cc2c1/C=c1/ccc2c(c1)N=C(c1ccc(C(F)(F)F)cc1)N=2`, the GI50 is 4.63 µM and the TGI came out at 49 µM.

As for `S=C(Nc1ccc(Cl)cc1)SC1CCCCC1`, the TGI came out at 90.2 µM.

As for `C[C@]12CC[C@H]3[C@@H](CC=C4C[C@@H](O)CC[C@@]43C)[C@@H]1C[C@H](N1CCOCC1)[C@@H]2O`, the TGI is greater than 100 µM.

The molecule `CC(C)(C)OC(=O)N1CCCC1C(=O)NCCNc1ccc(NCCNC(=O)C2CCCN2C(=O)OC(C)(C)C)c2c1C(=O)c1ccccc1C2=O` (centres undefined) came in with a TGI of 33 µM.

For the molecule `COc1cc(-c2nccc3[nH]c(-c4cccc5[nH]ccc45)nc23)cc(OC)c1OC`, the GI50 was less than 0.01 µM and the TGI was 19 µM.

`Cc1cc(O)c2cc3c(O)c(O)ccc3cc2c1` gave a TGI greater than 100 µM.

As for `CCOC(=O)CCC(NC(=O)c1ccc(OCc2ccc3nc(OC)c(OC)nc3c2)cc1)C(=O)OCC` (centres undefined), the TGI was greater than 100 µM.

Molecule `O=[N+]([O-])c1ccc(/C=N/n2c(CCc3n[nH]c(=S)n3/N=C/c3ccc([N+](=O)[O-])o3)n[nH]c2=S)o1` displayed a TGI greater than 100 µM.

For the molecule `C=C(CS(=O)(=O)c1ccccc1)C(=O)OCC`, the TGI amounted to 30.7 µM.

For the molecule `COc1cccc2c1C(=O)c1c(O)c3c(c(O)c1C2=O)C[C@@](O)(C(C)=O)C[C@@H]3OC1CC(N(C)C)C(O)C(C)O1` (some centres undefined), the GI50 is 0.0278 µM and < 0.0112 µM.

Molecule `CCn1c(SCC(=O)NNC(=S)Nc2ccc(Cl)cc2)nc2ccccc2c1=O` yielded a TGI greater than 100 µM.

With `O=[N+]([O-])c1ccc(Oc2cccc(C(F)(F)F)c2)c([N+](=O)[O-])c1`, the GI50 is 11.1 µM and the TGI amounted to 23.7 µM.

The molecule `Cc1cc2oc(=O)c(Cl)c(Cl)c2c(C)c1Cl` had a TGI of 31.4 µM.

As to `COc1ccc(C2c3cc4c(c(OC)c3CC3OCC(=O)C32)OCO4)cc1OC` (centres undefined), the GI50 is less than 0.01 µM and the TGI was greater than 100 µM.

In turn, `C[As](C)SCC(NC(=O)CCC(N)C(=O)O)C(=O)NCC(=O)O.Cl.c1ccncc1` (centres undefined) showed a TGI of 4.43 µM.

The molecule `CCNC(=S)Nc1c(C#N)c2n(c1C(=O)OCC)CCCCC2` came in with a TGI greater than 100 µM.

`Cc1ccc(NC(C(=O)c2ccccc2)c2ccccc2)cc1` (centres undefined): the GI50 was 3.31 µM and the TGI was determined as 50.3 µM.

In turn, `CCc1cccc(C(C)C)c1NC1=C([n+]2ccc(C)cc2)C(=O)c2ccccc2C1=O` registered a TGI of 13.6 µM.

As to `O=C1NC(=O)C(N2CCc3ccccc32)=C1c1ccc(Cl)cc1`, the GI50 is greater than 25 µM and the TGI was greater than 25 µM.

In turn, `O=C(Nc1ccc(Cl)cc1Cl)c1cc2nc3ccccc3c(=O)n2c2ccccc12` returned a TGI greater than 10 µM.

`CC(=O)[C@H]1[C@@H](OCc2ccccc2)O[N+]([O-])=C(C)[C@@H]1c1ccccc1`: the TGI is greater than 100 µM.

Consider `Cc1cn(C2CC(N=[N+]=[N-])C(CO)O2)c(=O)[nH]c1=O` (centres undefined), for which the GI50 is 959 µM and the TGI was greater than 1000 µM.

Molecule `CCSC1=C(C#N)C2(CCCCC2)C2=C(CC(C)(C)CC2=O)N1` displayed a TGI of 61.6 µM.

On to `O=C(CCCCCNC1=CC(=O)c2ccccc2C1=O)NCCC[Te]c1ccccc1`, for which the GI50 is 0.481 µM and the TGI is 3.56 µM.

In the case of `N=c1oc2ccc([N+](=O)[O-])cc2cc1C(=O)Nc1ccccn1`, the TGI was greater than 100 µM.

As to `Cc1ccc(-n2nnc3c(sc4ccccc43)c2=O)cc1`, the GI50 is 5.85 µM and the TGI is greater than 100 µM.

With `c1ccc2c(c1)ccc1nc3ccccn3c12`, the TGI was greater than 100 µM.

In turn, `CSc1ncc2c(C#N)c3ccccn3c(=O)c2n1` showed a TGI greater than 100 µM.

Regarding `O=Cc1c[nH]c2ccc(-c3csc4ccccc34)cc12`, the GI50 is 6.27 µM and the TGI is greater than 100 µM.

Consider `CC(C)(C)C(=O)CC(=O)C(F)(F)C(F)(F)C(F)(F)F.CC(C)(C)C(=O)CC(=O)C(F)(F)C(F)(F)C(F)(F)F.CC(C)(C)C(=O)CC(=O)C(F)(F)C(F)(F)C(F)(F)F.[Er]`, for which the GI50 was greater than 100 µM and the TGI is greater than 100 µM.

With `NC(=O)c1ccccc1NC(=O)C(=O)Nc1n[nH]c(N)n1`, the TGI was greater than 100 µM.

On to `O=CNNC(=O)CSc1nc2ccc(I)cc2c(=O)n1Cc1ccccc1`, for which the TGI is greater than 100 µM.

`NS(=O)(=O)c1ccc(N=Nc2ccc(O)c(O)c2)cc1` displayed a TGI of 64.8 µM.

In the case of `CC[C@@]1(O)C(=O)OCc2c1cc1n(c2=O)Cc2cc3c(Cl)c4c(cc3nc2-1)OCO4`, the GI50 is 0.0143 µM and 0.0843 µM; the TGI is greater than 100 µM.

Take `CC(=O)NC1CCCN(O)C(=O)/C=C(/C)CCOC(=O)C(NC(C)=O)CCCN(O)C(=O)/C=C(/C)CCOC(=O)C(NC(C)=O)CCCN(O)C(=O)/C=C(/C)CCOC1=O.[Fe]` (centres undefined): the GI50 was greater than 100 µM and the TGI was greater than 100 µM.

On to `Cn1c2c(c3ccccc31)CC(=O)N1CCCC(C1)CC21OCCO1` (centres undefined), for which the TGI was greater than 100 µM.

On to `N#Cc1ccc(N2Cc3cc(Cl)ccc3OC3=C2C(=O)N(Cc2ccc(F)cc2)C3=O)cc1`, for which the GI50 was 8.86 µM and the TGI is 22.2 µM.

Molecule `COC(=O)CCN1CCN(CCO)CC1C` (centres undefined) gave a TGI greater than 10 µM.

Take `CC1=C(S(=O)c2ccc(C)cc2)CCC2(CCCCO2)O1` (centres undefined): the TGI was greater than 100 µM.

`COc1cc(-c2ccccc2)c(OC)cc1CCl` came in with a TGI greater than 100 µM.

Take `CC(C)[Si](Oc1cc2c3c(ccc2c(O)c1[C@@H](C)CO[Si](C)(C)C(C)(C)C)C(C)(C)CCC3)(C(C)C)C(C)C`: the TGI is greater than 100 µM.

`c1csc(-c2cscc2-c2cccs2)c1` returned a TGI greater than 100 µM.

`NC(CCC(=O)NC(CSC(=O)N(O)c1ccc(Cl)cc1)C(=O)NCC(=O)O)C(=O)O` (centres undefined) gave a TGI greater than 0.5 µM.

`Cc1ccc(S(=O)(=O)C(C#N)c2nc3ccccc3nc2N2CCOCC2)cc1` (centres undefined) gave a TGI of 55.2 µM.

In the case of `O=C1C=CC(=O)c2c1cc1ccccc1c2O`, the TGI is 33.5 µM.

Turning to `OC1=CN=C(C2CC2)Oc2ccccc21`, the TGI is greater than 100 µM.

Regarding `O=C1/C(=C\c2ccc([N+](=O)[O-])cc2)CS(=O)(=O)C/C1=C/c1ccc([N+](=O)[O-])cc1`, the GI50 was 0.806 µM and the TGI was 10.1 µM.

Take `O=C1c2ccccc2-c2c1c1c(O)cccc1n2CCCc1ccccc1`: the GI50 is 32.6 µM and the TGI is greater than 100 µM.

`Cc1cc(O)c2c(c1)C(=O)C=C(Br)C2=O` yielded a TGI greater than 54.1 µM.

Turning to `CCN1CCN(CC(=O)Nc2nc3ccc(NCc4ccc(C)cc4)cc3s2)CC1`, the GI50 is 5.71 µM and the TGI stood at 12.1 µM.

For the molecule `CCOC(=O)C1=C(C)NC(C)=C(C(=O)OCC)C1c1cc(Br)c(O)c(OC)c1`, the GI50 was 8.69 µM and the TGI came to 31.6 µM.

`Cc1ccc(S(=O)(=O)Nn2c(C)cc3ccc(S(=O)(=O)Nc4ccccc4[N+](=O)[O-])cc3c2=O)cc1` came in with a TGI greater than 100 µM.

`CC(=O)O[C@@H]1[C@@H](C)[C@]2(CC(c3ccoc3)OC2O)C2CCC3O[C@]3(C)[C@]2(C)[C@@H]1OC(C)=O` (some centres undefined): the TGI is greater than 100 µM.

Molecule `NC(Cn1ccc(=O)c(O)c1)C(=O)O` (centres undefined) gave a TGI greater than 100 µM.

Molecule `CC(=O)n1cc(CC(C)O)c(=O)[nH]c1=O` (centres undefined) gave a TGI greater than 100 µM.
